# Data from the supplement of paper PMC11417369.
# ± gives the standard deviation of the averaged measurements. The list shows a part of the results.
# System: PfAP2-I AP2 domain 3 (GST-tagged)
# Experiment: gcPBM binding intensity (ln(normalized median fluorescence intensity)); higher = stronger DNA binding
# Procedure, shortened: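 In this array assay, P. falciparum DNA-binding domains with a GST tag, expressed in E. coli, were applied for 1 h to primer-extended double-stranded 36-bp intergenic genomic probes and negative controls on an Agilent 4 × 180k array. Bound protein was visualised with Alexa488 anti-GST antibody at 488 nm. Binding intensity is the highest Masliner-normalised natural-log median intensity across replicate spots of either probe orientation.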
row,Sequence,gcPBM binding intensity (ln)
1,GCCCCCTAAAAAATTACACACGAAAAAAATGAATTT [CACACA_site9128],9.4 ± 0.22
2,TTTAACAAGTTAAACACACATACATATATACATATA [CACACA_site2536],7.56 ± 0.44
3,AATGTATATATATATATATATATATATATTTATTTA [CACACA_negctrl_site113],7.89 ± 0.2
4,AAGAAAATAGAAAATACACACAGCAAACAGAGGAAT [CACACA_site3785],7.98 ± 0.93
5,ATATATATATATTTATGTACATATATTTTTTTTTTT [XGTACX_site8558],9.175 ± 0.049
6,AAGCCTTAAAAGGAAAGTACGTATATATATATATAT [XGTACX_site8559],9.39 ± 0.16
7,ATATTTAATTAAAAGAGTACTTAAATAAAATAAATG [XGTACX_site2149],7.7 ± 0.42
8,ATGAAACATGTATATTGTACTCTGGATCAATTTAAT [XGTACX_site6413],7.52 ± 0.58
9,AATAAATAAATACATCTCAGTATATAAACAAACAAA [CACACA_negctrl_site1604],7.7 ± 0.34
10,AAATTTATTATATATACATGCAATCATAAATAATGT [TGCATGCA_site539],7.68 ± 0.48
11,GGATATAACAAACACACACACACATATATATATATT [CACACA_site4141],7.96 ± 0.46
12,AATACATATAATACAACACACAAGTAATATAAACCT [CACACA_site3597],7.81 ± 0.71
13,TTTAAATGAAAAAAAGGTACACAATATTATTCTTAT [XGTACX_site8612],7.71 ± 0.54
14,AAGAAAAAAAAAAATATATATACATATATATATATA [TGCATGCA_negctrl_site485],9.39 ± 0.18
15,AATACTTATTATGAAACACACACCAAAACTACATAA [CACACA_site270],8.12 ± 0.57
16,AAAAAAAAAAAACACACACACACACTAGTATATAAA [CACACA_site4783],7.84 ± 0.37
17,TATACATACACATACACACATACACCCATACACATA [CACACA_site1746],8.16 ± 0.23
18,TTCTTCTAATCCTTTTATCTCATTAAAAAAATATAA [CACACA_negctrl_site12],7.8 ± 0.4
19,ACGTGTATTTATTTAGTGCACTTTATATTTTTTCTT [GTGCAC_site9426],11.5 ± 0.28
20,ATCCTAATATTGAACTGTACCTTATATGTTATTATA [XGTACX_site1014],7.93 ± 0.69
21,GGTTATATATTTTTTGCACACCAAAAAAGAGAATAT [CACACA_site2731],9.56 ± 0.14
22,TATATATATATATATACACACATATATACATATATA [CACACA_site4043],9.19 ± 0.59

row,Sequence,gcPBM binding intensity (ln)
1,TTATAAATAAAAAATACACACATATATTTATTTATA [CACACA_site6242],7.33 ± 0.47
2,ATAATATATGAAAGTGGTACACAAAGGAAAATAAAA [XGTACX_site333],8.56 ± 0.85
3,AATAATAAATCAAACTGTACATATATTTTCAATCTA [XGTACX_site3344],7.55 ± 0.57
4,TGTAGTCTGGAGAAAAGTACACAGTATCCGGTAACT [XGTACX_site4934],7.71 ± 0.73
5,TTTTTTTTTTTGTTCACACATATATATATATATATA [CACACA_site5376],9.44 ± 0.38
6,TTAACTATGAATACATGTACATGAAAATATTTCAAT [XGTACX_site1069],7.79 ± 0.28
7,AAAATTAAACAAAGTTGTACAAAATAATAATAAAAG [XGTACX_site7515],8.02 ± 0.54
8,AAATTAATAAAAAATGGTACACAAAATGGATGTATA [XGTACX_site1561],7.9 ± 0.44
9,GGCAAATTTATTATACCCACATACATACATACATAC [XGTACX_negctrl_site186],8.91 ± 0.41
10,TTTATATTAATTGATGTGCACTGAAATATTTGTCCA [GTGCAC_site9655],10.3 ± 0.28
11,ACCCTATAGGTAACTACACACCGCATATTGTTTACT [CACACA_site7436],7.88 ± 0.73
12,AAAATAAAATAAAACACAAAAAAATAAAACAAAATA [CACACA_negctrl_site16],7.66 ± 0.49
13,TATATATCCATGTGTACACACAAAAAAAAATAAAGT [CACACA_site7107],8.61 ± 0.47
14,AAATATGTTTATATATGTACTTATAATTCAAAATAT [XGTACX_site2167],7.64 ± 0.3
15,TCTATGCGTTTTAATAGTACATATAAAATTTATACA [XGTACX_site6986],7.92 ± 0.28
16,AAATAAAATATATACATATATATATTATTTAGTAAT [XGTACX_negctrl_site375],7.31 ± 0.4
17,CCATGTCACAATTTTTCACACACAAAATTTATATAC [CACACA_site8628],8.18 ± 0.55
18,TAATTAACAAACTATAGTACACAAAATACTTCATAT [XGTACX_site6375],7.88 ± 0.39
19,ATATACACACATAAGTGTACTTATATTTCATATATA [XGTACX_site8646],7.99 ± 0.57
20,TTATTTTTGTGTAAGGTGCTATATATAATGTTTTTA,10.1 ± 0.67
21,AAAAAGGATAAACACACACACACACCGATATATATA [CACACA_site8206],8.14 ± 0.87
22,AACGAAATCATCAAGTGTACTAGTTTATTATTAATA [XGTACX_site6161],7.7 ± 0.42

row,Sequence,gcPBM binding intensity (ln)
1,AAATGTGATATAAGTACACACACATATGTATATATA [CACACA_site8539],7.84 ± 0.44
2,TATGTATATTATATGACACACATTTATATATATATA [CACACA_site1167],9.01 ± 0.52
3,AATAAATAAATAAATATATATATATATATATATATG [CACACA_negctrl_site899],8.41 ± 0.5
4,TTTTGTTGATTTATATCTGTAGGGTTTAATATAACA [XGTACX_negctrl_site174],7.5 ± 0.34
5,TATTTTATCTATTTGTGTACTTATATTTATGCAAAA [XGTACX_site1499],8.21 ± 0.34
6,TATATATATAATATTGCACACAAAATTAAAAGTAAA [CACACA_site7889],10.02 ± 0.071
7,ATAAATAATATATATACACACATATCTATACATATT [CACACA_site487],7.73 ± 0.4
8,AAATTATTAAAAAAAAGTACATATATATATATATAT [XGTACX_site8313],9.41 ± 0.64
9,ATAATACACGATTATTTTCCCTTTATGTAAATATAT [CACACA_negctrl_site1107],7.85 ± 0.51
10,ATCATCTATGTTATTACACACGTTATGTTATTATAA [CACACA_site5502],7.93 ± 0.57
11,TTTTTTTTTTTTTTATGTACGAAAGAAAAGCACATA [XGTACX_site8261],8.485 ± 0.078
12,TTTAGATAATTCATTACACACATGTATATTTATATA [CACACA_site7602],7.6 ± 0.51
13,TAACGAATTTAAATTTGTACATATATAAATATATAA [XGTACX_site2168],7.55 ± 0.33
14,ACTAAACTTTTATGTACACACATATAACATTAATTT [CACACA_site5276],8.18 ± 0.29
15,TACGTAAAAATAGGACGTACTTATTTAGAAACCATA [XGTACX_site2498],7.78 ± 0.23
16,TACAAAATGGGGAACACACACATATATATATATATA [CACACA_site3844],9.3 ± 0.39
17,TTGGTACCTATAGATACACACATATATACCTATATA [CACACA_site5812],7.58 ± 0.41
18,AAATATTATAGCACCACACACTTATTTTATTTATAT [CACACA_site7133],10.8 ± 0.55
19,AGAAAGAAAGAATACACACACACATATATAAATATC [CACACA_site7716],7.91 ± 0.7
20,ATTATCAATATGAAGGTGCATTTAAATAATATTTAC,11.3 ± 0.7
21,TATATTCTTTATAGGTGTACTTAATAAATAAAAAAT [XGTACX_site5378],8.11 ± 0.23
22,TATCTAGTTACTCCTTGTACATAATAAATGATTTTT [XGTACX_site5674],7.78 ± 0.54

row,Sequence,gcPBM binding intensity (ln)
1,TATATATATGTGTTTACACACAATAATGAATTAAAA [CACACA_site4659],7.92 ± 0.57
2,TATGAACATAAATTTGCACACTGGATATAATATATA [CACACA_site2155],9 ± 0.11
3,ATATATATATTTTTATGAGGCATAAGTAATATTTTT [TGCATGCA_negctrl_site317],8.74 ± 0.11
4,AACAAGAAAAAAAAAAAAAAAAAAAAAAAATATTTT [XGTACX_negctrl_site428],7.32 ± 0.57
5,TTTTTATTTTTTTAGTATACGTACTAGGTTTGTTCT [XGTACX_site645],7.84 ± 0.42
6,ATATATTTATATATATGTACTTAAAACATTTCGATG [XGTACX_site328],7.62 ± 0.22
7,AATGTAATATAAATATGTACATAATATATATAATTA [XGTACX_site4762],7.64 ± 0.41
8,ATTTGTTTATAGGCCATAAAATATTTAATTCATTTG [CACACA_negctrl_site1824],7.64 ± 0.58
9,TTTTTCATAAATATATGTACATATATTTTATATAAC [XGTACX_site3402],7.99 ± 0.51
10,AGTATTATATTTGTATGTACGTAGTAATATATAAAA [XGTACX_site528],7.86 ± 0.6
11,ATTTATATTTATGATACACACACGTATATTCACATA [CACACA_site460],7.92 ± 0.67
12,TATGAAAAAAAAAATACACACACGAGTTGTTATACA [CACACA_site3188],7.53 ± 0.58
13,AATGAAATATGGATGGGTACACATTTGATTTTATTA [XGTACX_site6155],7.61 ± 0.5
14,TGTATGTATAGAAACACACATACATATATATAATAT [CACACA_site1405],7.5 ± 0.46
15,ATATATATAAACATATGTACACATATATATAATACA [XGTACX_site1848],8.28 ± 0.4
16,TAAGAAAATATTTATGTATGCATGTCCTAATATTTC [TGCATGCA_site295],7.88 ± 0.63
17,AAAAAAAATTAATTAGTGCAAAATATATACAAAATA [GTGCAC_site9762],10.36 ± 0.071
18,ATATAAAATATTAGTAGTACCATTAACAGTATTGTT [XGTACX_site5912],7.75 ± 0.35
19,ATTAAGATGTATATATGTACATATTACATACATATA [XGTACX_site8657],7.61 ± 0.39
20,TGAAAATAGTTAATTTGTACACAAAAATTAAGAAAA [XGTACX_site5794],8.04 ± 0.51
21,AATTAAATAAATGTATGTACATAATAAATATGTATT [XGTACX_site4379],7.55 ± 0.41
22,TTTTATTTTATAAAAATAAAAAAAAAATTATTACAA [TGCATGCA_negctrl_site508],7.38 ± 0.39
